± gives the standard deviation. This is a selection; strong and weak results do not stand in their true shares.
Test system: MIWI (PIWIL1) piRISC loaded with L1MC piRNA (30 nt)
Experiment: pre-steady-state target cleavage rate (min^-1); MIWI and MILI are mouse PIWI proteins and EfPiwi is from a freshwater sponge; tags in brackets are library labels; higher = faster piRNA-guided slicing of the target
Details: guide: L1MC piRNA 5'p-UAACUAAAUACUAUGCAAGCUGUAGGUCCU
Procedure, shortened: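 In HEPES–potassium acetate buffer at 33 °C, […] transcribed, DNA-blocked target RNA library was mixed with 1 nM active affinity-purified piRISC carrying one synthetic guide, with or without 500 nM GTSF1 partner protein, for 0–8 or 0–960 min. Uncleaved targets were sequenced and normalised to depth and to weakly complementary targets; three trials were pooled and k3 was capped at 0.0001 min^-1. The pre-steady-state cleavage rate followed from a burst-and-steady-state fit.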

[1] = auxiliary factor: 500 nM mouse GTSF1
[2] = auxiliary factor: none (no GTSF1)
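Further: 1 nM active piRISC with 0.1 nM target library at 33 °C single turnover.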

Sequence | pre-steady-state target cleavage rate [1] | pre-steady-state target cleavage rate [2]
UCCUGGAUGUGCUUGGAUACUAUUUAGUUA | 0.031 ± 0.011 | 0.0033 ± 0.0029
UGGACCUACAGCUUGCAAUGUAUUUAGUUA | 0.452 ± 0.047 | 0.00626 ± 0.0029
UCGACCUAGAGCUUGCAUAGUAUUUAGAUA | 0.46 ± 0.051 | 0.0214 ± 0.0059
UGGACCUACAGCUUGCAUAGGAUUUAGUUA | 0.0322 ± 0.005 | 0.00891 ± 0.0028
UGGACCUACAGCUUGCAUAGAUUUUAGUAA | 0.0856 ± 0.019 | 0.00279 ± 0.0026
UCCUCCUACAGCUUGCAUAGUAUUUAGUCA | 0.739 ± 0.043 | 0.0347 ± 0.0077
UCCUGGAACACUUGCAUAGUAUUUAGUUA | 0.596 ± 0.032 | 0.0132 ± 0.0044
UCGACCUACAGCUUGCAUAGAAUAUAGUUA | 0.393 ± 0.034 | 0.0127 ± 0.0033
UCGACCUUCAGCUUGCAUAGAAUUUAGUUA | 0.306 ± 0.031 | 0.0146 ± 0.0037
AGGACCUACACGUUGCAUAGUAUUUAGAAA | 0.43 ± 0.045 | 0.00563 ± 0.0027
UCCUGCUACAGCUUGCUAUGUAUUUAGUUA | 0.14 ± 0.018 | 0.00454 ± 0.0017
UCCUGGAUCAGCUAGCAAAGUAUUUAGUUA | 0.509 ± 0.041 | 0.00595 ± 0.0026
UCCUGGAUGAGCUUGCAUAGUAUUUAGUA | 0.627 ± 0.056 | 0.0139 ± 0.0034
UCCUCCUACAGCAUGCAUAGAAUUUAGUUA | 0.436 ± 0.066 | 0.00465 ± 0.0017
UCCUGGAUCAGCUUGCAUAGUAUUUAGGUA | 0.35 ± 0.036 | 0.0219 ± 0.0041
UCCUGGUACAGCUUAGCAUAGUAUUUAGUUA | 0.873 ± 0.037 | 0.0127 ± 0.0031
UCCUGGAUCAGCUUGCAUAGUAUAUAGUUA | 0.78 ± 0.043 | 0.0244 ± 0.0059
UGCACGUACAGCUUGCAUAGUAUUUAGUUA | 1.26 ± 0.045 | 0.0736 ± 0.01
UCCACGAACAGCUUGCAUAGUAUUUAGUAA | 0.472 ± 0.041 | 0.0317 ± 0.0067
UCCACCUAAGCUUGCAUAGUAUUUAGUUA | 0.428 ± 0.037 | 0.025 ± 0.0049
UCCUGGUACAGCUAGCAUAGUAUUUAGUUA | 0.733 ± 0.042 | 0.019 ± 0.0043
UGGACGAACAGCUUGCAUAGUAUUUUCAAA | 0.191 ± 0.026 | 0.0045 ± 0.0024
UCCUCCUAGAGCUUGCAUAGUAUUUAGAUA | 0.253 ± 0.037 | 0.0109 ± 0.0023
UCCUGGUACAGCUUGCAUAGUAUAUAGUAA | 0.272 ± 0.036 | 0.00905 ± 0.0031
AGGACGUACAGCUUGCAUAGUAUUUAGUUA | 1.19 ± 0.048 | 0.0866 ± 0.014
AGGUCCUACAGCUUGCAUAGUAUUUAGAAA | 0.285 ± 0.045 | 0.0132 ± 0.0048
AGGACCUACAGCUUGCAUAGUAUUUAGUUC [g2:g30:cont:t1C] | 0.664 ± 0.055 | 0.0568 ± 0.01

Sequence | pre-steady-state target cleavage rate [1] | pre-steady-state target cleavage rate [2]
UCGACCUACAGCUUGCAUAGUAUUUAAGUUA | 1.03 ± 0.059 | 0.0887 ± 0.021
UCCUGGUAGAGCUUGCAUAGUAUUUAGAAA | 0.323 ± 0.049 | 0.00473 ± 0.0032
UCGACCUACACGUUGCAUAGUAUUUAGUAA | 0.774 ± 0.045 | 0.0103 ± 0.003
UCCUGGUACAGCUUGCAAAGUAUUAAGUUA | 0.35 ± 0.049 | 0.0147 ± 0.0043
AGGACCUACAGCUUCCUUAGUAUUUAGUUA | 0.63 ± 0.049 | 0.00273 ± 0.0022
UCCUGGAUCAGCUAGCAUAGUAUAUAGUUA | 0.341 ± 0.036 | 0.00497 ± 0.0029
UCCUGGUACAGCUAGCAUAGUUUUUAGUUA | 0.191 ± 0.031 | 0.0196 ± 0.0048
UCCUGCUACAGCUUGCAUAGUAUUUUGUAA | 0.274 ± 0.043 | 0.009 ± 0.0031
UGGACCUAAAGCUUGCAUAGUAUUUAGUUA | 0.879 ± 0.049 | 0.0413 ± 0.0088
UGGAGGAACAGCUUGCAUAGUAUUUAGUAA | 0.754 ± 0.05 | 0.0519 ± 0.012
UGGACCUACAGCUUGCAUAGUAUUUACUAA | 0.143 ± 0.017 | 0.0153 ± 0.0048
UGGACCUACAGCUUGCAUAGUAUUUACGUUA | 0.893 ± 0.062 | 0.0507 ± 0.011
AGGACCUACAGCUUGCAUAGUAAAUAGUUA | 0.673 ± 0.05 | 0.0172 ± 0.0063
UCCUGGUUCAGCAUGCAUAGUAUUUAGUUA | 0.93 ± 0.036 | 0.0172 ± 0.0043
UCCUGGAUGAGCUUCAUAGUAUUUAGUUA | 0.443 ± 0.05 | 0.00285 ± 0.0024
UCCUGGAACAGCAUGCAUAGUAUUAAGUUA | 0.642 ± 0.052 | 0.0124 ± 0.0043
AGGACCUACAGCUUGCAUAGUAAUUAGUUA | 0.971 ± 0.067 | 0.0373 ± 0.0098
UCCUGGAUCAGGUUGCAUAGUAUUAAGUUA | 0.199 ± 0.019 | 0.00417 ± 0.0022
UCCACCUACUGCUUCCAUAGUAUUUAGUUA | 0.074 ± 0.019 | 0.00376 ± 0.0014
UCGACCUACUGCUUGCAUAGUAUUUACAAA | 0.237 ± 0.027 | 0.00606 ± 0.0017
UCCUGGUACUCCUUGCAUAGUAUUUAGUUA | 0.216 ± 0.044 | 0.00686 ± 0.0022
AGGACCUACAGCUUGCAUAGUUAAUAGUAA | 0.309 ± 0.083 | 0.00412 ± 0.0029
AGGACCUAAAGCUUGCAUAGUAUUUAGUUA | 0.673 ± 0.05 | 0.0594 ± 0.0091
UCGACCUACAGCUUGGAUAGUAUUUUGUUA | 0.968 ± 0.064 | 0.044 ± 0.0084
UCCUGCUACAGCUUGCAUACUAUAUAGUUA | 0.199 ± 0.02 | 0.0106 ± 0.0021
UCCACGUACAGGUUGCAUAGUAUUUAGUUA | 1.08 ± 0.035 | 0.0352 ± 0.0061
UCCUGGAUCAGCUUGCAUAGUACUUAGUUA | 0.974 ± 0.042 | 0.0407 ± 0.01

— the supplement of paper PMC10338343
